{
  "source": "PubChem BioAssay (NCATS)",
  "note": "Inconclusive means that the source gave no clear call. Such entries were picked first, then a sample of the others. Where the call is inconclusive, the potency comes from a doubtful curve fit. The source made the active and inactive calls. Calls come from the whole dose curve; as a rule, active = well fitted inhibition curve with a large enough effect; inconclusive = small, poorly fitted or top-dose-only effect; inactive = no such curve, though single readings can be large or run the other way. Potency is the fitted concentration of half-maximal effect; tags give direction and shape of the fitted curve.",
  "data": [
    {"experiment": "Primary qHTS for inhibitors of nuclear receptor binding SET domain protein 2 (NSD2) in an RCH-ACV wild type WT cells (2C) (AID 1645877); note: nearly all actives have a fitted effect of over 70% in size", "conditions": "RCH-ACV NSD2 WT (2C) viability, CellTiter-Glo, 72 h; series mostly up to 44.9 µM", "values": [
      {"smiles": "O=C1OC2(c3ccc(O)cc3Oc3cc(O)ccc32)c2ccccc21", "Potency": "inconclusive: 29.9 µM [inhibitor, single point]"},
      {"smiles": "CC1=C(CC(=O)O)c2cc(F)ccc2C1=Cc1ccc(S(C)=O)cc1", "note": "(stereo unspecified)", "Potency": "inconclusive: 29.5 µM [inhibitor, single point]"},
      {"smiles": "Nc1c(Br)cc(Br)cc1CNC1CCC(O)CC1", "note": "(stereo unspecified)", "Potency": "inactive"},
      {"smiles": "NC[C@H]1O[C@H](O[C@H]2[C@H](O[C@@H]3O[C@H](CO)[C@@H](O)[C@H]3O)C(O)[C@H](N)C[C@@H]2N)[C@H](N)[C@@H](O)[C@@H]1O", "note": "(stereo partly specified)", "Potency": "inconclusive: 3.86 µM [inhibitor, single point]"},
      {"smiles": "Cc1cc(SCc2sc(-c3ccc(C(F)(F)F)cc3)nc2C)ccc1OCC(=O)O", "Potency": "inconclusive: 29 µM [inhibitor, single point] and inactive"},
      {"smiles": "CCc1ccc(C(=O)C(C)CN2CCCCC2)cc1", "note": "(stereo unspecified)", "Potency": "active: 23.7 µM"}
    ]}
  ]
}
